About 50,000 (12%) of roughly 420,000 compounds were called active. The shares of active, inactive and inconclusive entries below differ from those in the screen. The call rests on the fitted dose curve; in most records, active means well fitted inhibition curve with a large enough effect; inconclusive means small, poorly fitted or top-dose-only effect; inactive means flat fitted curve, though single readings scatter. No potency is given beside an inconclusive call; the fits are too rough.
Assay: qHTS for Inhibitors of human tyrosyl-DNA phosphodiesterase 1 (TDP1): qHTS in cells in presence of CPT; further: nearly all actives have a fitted effect of over 55% in size
Conditions: chicken DT40 Tdp1-/-;hTDP1 cells + 20 nM CPT, ATP luminescence, 48 h; activity change, negative = growth inhibition: at 46.2 µM (top of the series) unless noted
Procedure, shortened: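 Chicken DT40 Tdp1-/- cells stably complemented with human TDP1 were seeded at 400 cells/well in medium containing 20 nM camptothecin, exposed to pin-transferred compounds, and grown at 37 °C for at least 48 hr. Viability was read as ATP luminescence.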
On the % scale 0 is the no-effect control and ±100 the full control effect; potency means the concentration at half of the fitted maximal effect; tags describe the fitted curve by direction and shape.

SMILES	activity change, negative = growth inhibition	Potency
S=C(NCc1ccc2c(c1)OCO2)NCc1ccco1	inactive: 3.98%	–
N#Cc1ccc(C(=O)N2CCCC(c3cc(C(=O)NCc4cccnc4)no3)C2)cc1 (stereo not drawn)	–	inconclusive [inhibitor, single point]
C[C@H]1CN([C@@H](C)CO)C(=O)CCCn2nncc2CO[C@H]1CN(C)C(=O)Nc1cccc(Oc2ccccn2)c1	inactive: -2.12%	–
CS(=O)(=O)N1CCCC(C(=O)Nc2c(F)cccc2F)C1 (stereo not drawn)	inactive: -8.86%	–
COc1ccc(CCNC(=O)CCCC(=O)n2nc(C)c3ccccc32)cc1OC	–	inconclusive [inhibitor, single point]
COCCNC(C(=O)Nc1ccc([N+](=O)[O-])cc1Br)c1ccccc1 (stereo not drawn)	–	inconclusive [inhibitor, single point]
COc1cccc(NC(=O)CN(C)C(=O)/C=C/c2cn(-c3ccccc3)nc2-c2ccc(C)cc2)c1	–	inconclusive [inhibitor, single point]
CS(=O)(=O)N(CCc1ccccc1)CC(=O)N1CCCCCC1	inactive: -15.6%	–
CC(C)Oc1ccc(C(=O)Nc2ccc([N+](=O)[O-])cc2)cc1	–	inconclusive [inhibitor, single point]
Cc1ccc(C(=O)NC2=NC(c3ccc(C)cc3)CC(=O)N2)cc1 (stereo not drawn)	inactive: -6.82%	–
CC1CCCC(NC(=S)Nc2cccc(S(=O)(=O)N(C)C)c2)C1C (stereo not drawn)	–	inconclusive [inhibitor, single point]
C=CCOc1ccn(C)c(=O)n1	inactive: -4.44%	–
CC(=O)N1CSCC1C(=O)NNS(=O)(=O)c1cccc(C(F)(F)F)c1 (stereo not drawn)	inactive: 12.2%	–
Cc1ccc(S(=O)(=O)Nc2ccc3c(c2)nc(CCN2CCCCC2)n3C)cc1	inactive: -11.5%	–
CC(=O)Nc1ccc(/C(N=Nc2ccccc2)=N/N=C(N)N)cc1	–	inconclusive [inhibitor, single point]
O=C1C2CCCCN2C(=O)N1CCCCN1CCN(c2ccccc2Oc2ccccc2)CC1 (stereo not drawn)	–	inconclusive [inhibitor, single point]
O=S(=O)(Nc1ccc2c(c1)OCCO2)c1c(F)cccc1F	inactive: -93.1%	–
O=C(Nc1ccc(C(=O)N2CCOCC2)cc1)c1cnn2c(C(F)F)cc(-c3ccccc3)nc12	–	inconclusive [inhibitor, single point]
CC1CN(CC(=O)N2CCN(Cc3nccn3C)CC2)Cc2cc(Cl)ccc2O1 (stereo not drawn)	inactive: 5.07% [at 9.04 µM]	–
CC(=O)c1ccc(NC(=O)c2cc3sccc3n2Cc2ccc(F)cc2)cc1	inactive: -24.1%	–
CCn1c(SCCC#N)nnc1-c1ccncc1	inactive: -8.25%	–
Cc1cc(SCC(=O)OC(C)C(=O)N(C)c2ccccc2)nc2ccccc12 (stereo not drawn)	inactive: 2.47%	–
COCCCN1C(=O)c2[nH]nc(-c3ccccc3O)c2C1c1cccc(Cl)c1 (stereo not drawn)	–	active: 20.6 µM
S=C(NCC1CCCO1)NC1CCCC1 (stereo not drawn)	inactive: 19%	–
CC(O)C(NS(=O)(=O)c1ccc(Cl)cc1)C(=O)OCC(=O)N1CCN(c2ccccc2)CC1 (stereo not drawn)	–	inconclusive [inhibitor, single point]

SMILES	activity change, negative = growth inhibition	Potency
COC(=O)C1=C(C)Nc2ncnn2C1c1cccnc1 (stereo not drawn)	inactive: -0.87%	–
CC(C(=O)Nc1ccc(S(=O)(=O)N2CCCC2)cc1)N1CCCC(C(N)=O)C1 (stereo not drawn)	inactive: -4.76%	–
Cc1c(C(=O)NC2=NCCS2)oc2ccccc12	–	inconclusive [inhibitor, full curve]
COCCNc1nc(Oc2cccc(NC(C)=O)c2)c2sc(-c3ccccc3)cc2n1	–	inconclusive [inhibitor, single point]
COc1ccc(-c2cc(C(F)(F)F)n3ncc(C(=O)NCC4CCCO4)c3n2)cc1 (stereo not drawn)	–	inconclusive [inhibitor, single point]
CCOC(=O)c1ccccc1NS(=O)(=O)c1ccccc1F	–	inconclusive [inhibitor, single point]
O=C(COC(=O)c1nc(Cl)c(Cl)c(Cl)c1Cl)NCc1ccccc1	–	inconclusive [inhibitor, single point]
O=C(Cc1ccc(Cl)cc1Cl)Nc1cccc(S(=O)(=O)Nc2ccccc2F)c1	–	active: 14.6 µM
NC(c1csc(Nc2cc(NCc3ccco3)ncn2)n1)c1ccccc1Cl (stereo not drawn)	–	active: 20.6 µM
Cc1ccccc1S(=O)(=O)Cc1ccc(C(=O)NC2CCC(C)CC2)o1 (stereo not drawn)	–	inconclusive [inhibitor, single point]
CCOc1ccc(NC(=O)Cn2c(=O)n(-c3ccccc3)c(=O)c3ccc(C(=O)NCc4ccc5c(c4)OCO5)cc32)cc1	–	active: 20.6 µM
CCC1(C2CCN(Cc3ccccn3)CC2)NC(=O)N(CC2COc3ccccc3O2)C1=O (stereo not drawn)	inactive: -7.47% [at 9.04 µM]	–
COc1ccc(/C=C/C(=O)OCC(=O)N2c3ccccc3CC2C)cc1 (stereo not drawn)	–	inconclusive [inhibitor, single point]
Cc1ccc(/C=C/C(=O)Nc2cc(S(=O)(=O)N3CCOCC3)ccc2N2CCOCC2)cc1	–	inconclusive [inhibitor, single point]
COc1ccccc1C1CC(c2ccco2)=NN1c1ccccc1 (stereo not drawn)	–	inconclusive [inhibitor, single point]
CCC(C(=O)Nc1ccncc1)c1ccccc1 (stereo not drawn)	–	inconclusive [inhibitor, partial curve]
Cc1ccc(Cn2c(=O)c3c(nc4n3CCN4Cc3ccco3)n(C)c2=O)cc1	–	inconclusive [inhibitor, single point]
Cc1cc(C)c2c(C)c(C(=O)NCc3ccncc3)oc2c1	inactive: -29.5%	–
Cc1ccc(OCC(=O)OCC(=O)Nc2ccc3c(c2)OCO3)cc1C	inactive: -8.51%	–
O=C(NCc1ccco1)C1CC(=O)N(c2ccc(O)cc2)C1 (stereo not drawn)	–	active: 20.6 µM
Cc1ccc(CNC(=O)C2CCN(S(=O)(=O)c3ccc4[nH]c(=O)ccc4c3)CC2)cc1	inactive: -16.6%	–
Cc1noc(C)c1COc1ccccc1C(=O)N1CCN(c2cccc(Cl)c2)CC1	–	inconclusive [inhibitor, single point]
CCOc1ccc(C(=O)Nc2nc(C)c(C(=O)OC)s2)cc1	inactive: -34.5%	–
O=C1[C@@H]2[C@H](C(=O)N1Cc1cccnc1)[C@H]1C=C[C@@H]2C1	inactive: -17.6%	–
O=C(Nc1cc(S(=O)(=O)N2CCOCC2)ccc1N1CCOCC1)c1ccccc1F	–	inconclusive [inhibitor, single point]

SMILES	activity change, negative = growth inhibition	Potency
Cc1ccc2oc(-c3cccc(NC(=O)Cc4cccs4)c3)nc2c1	inactive: -11.7%	–
CCNC(=S)N(CCN(C)C)Cc1cc2cc(OCC)ccc2[nH]c1=O	–	inconclusive [inhibitor, single point]
CCC1Oc2ccc(C)cc2N(CC(=O)N(Cc2cccnc2)Cc2cccc(F)c2)C1=O (stereo not drawn)	–	active: 18.4 µM
Cc1cc(-c2ccc(C)c(S(=O)(=O)NC3CCCCC3)c2)on1	–	inconclusive [inhibitor, single point]
COc1ccc(S(=O)(=O)Nc2cc3c4c(oc3c3ccccc23)CC(C)(C)CC4=O)cc1	–	inconclusive [inhibitor, single point]
CN(c1ccccc1)S(=O)(=O)c1cccc(NC(=O)c2cc3ccccc3oc2=O)c1	–	inconclusive [inhibitor, partial curve, poor fit]
NC(c1csc(Nc2ccc(C(=O)NCCCO)cn2)n1)c1ccccc1Cl (stereo not drawn)	inactive: -4.93%	–
O=C(c1ccc(O)c(Cl)c1)N1CCN(S(=O)(=O)c2ccccc2)CC1	–	inconclusive [inhibitor, single point]
Cc1ccc(-c2ccc(CN3C(CC(C)C)C(=O)N(Cc4cn(CC5CCCCC5)nn4)CCS3(=O)=O)cc2)cc1 (stereo not drawn)	–	active: 20.6 µM
O=C(NCCNC(=O)c1ccc(Cl)cc1Cl)c1ccc(Cl)cc1Cl	–	inconclusive [inhibitor, single point]
CCN(Cc1ccc(OC)c(F)c1)C(=O)/C=C/c1ccc(S(=O)(=O)N2CCOCC2)cc1	–	inconclusive [inhibitor, single point]
Cc1ccccc1-n1nc(C(=O)c2cccs2)cc(-c2nc3ccccc3[nH]2)c1=N	–	active: 11.6 µM
O=S(OCCN1CCOCC1)C(c1ccccc1)c1ccccc1 (stereo not drawn)	–	inconclusive [inhibitor, single point]
CC(=O)NCCNc1nc2c(-c3ccccc3)nnn2c2ccccc12	–	inconclusive [inhibitor, single point]
COc1ccc(C(=O)CSc2nnc(CNc3ccc(F)cc3)o2)cc1	inactive: -26.4%	–
Cc1nn(-c2ccccc2)c2c1N(CC(=O)N1CCN(c3ccc(F)cc3)CC1)C(=O)CS2	–	inconclusive [inhibitor, partial curve]
CCOc1ccc(C(=O)c2ccc(OCC)c(N)c2)cc1N	–	inconclusive [inhibitor, single point]
CC1(C)C(=O)N(CC(=O)Nc2cccc(F)c2)c2ccc(S(=O)(=O)N3CCCCC3)cc21	–	inconclusive [inhibitor, single point]
O=C(N/N=C/c1ccc2c(c1)OCO2)c1cc(-c2ccccc2Cl)nc2ccccc12	inactive: 2.43%	–
CCCCc1nnc(NC(=O)c2oc3ccc(OC)cc3c2C)s1	–	inconclusive [inhibitor, full curve]
C#CCOC(=O)Nc1ccc(=O)n(Cc2c(Cl)cccc2Cl)c1	inactive: -16.9%	–
CN(C)c1ccc(CC(=O)N2CCCC(c3cc(C(=O)Nc4ccc(C(C)(C)C)cc4)no3)C2)cc1 (stereo not drawn)	–	inconclusive [inhibitor, full curve, poor fit]
CC(C)Cn1c2c(c(O)c(C(=O)Nc3ncccc3O)c1=O)CCCC2	–	inconclusive [inhibitor, single point]

Reference: PubChem BioAssay AID686979 (National Center for Advancing Translational Sciences (NCATS), 2013)
